# Test results taken from the supplement of paper PMC3334620.
# Over roughly 33,000 sequences, “E-score (-0.5 to 0.5)” has its median near -0.043; the highest 2% begin near 0.37. This is one part of the list.
# Molecular target: T1, Upc2 (UniProt Q12151)
# T1 sequence: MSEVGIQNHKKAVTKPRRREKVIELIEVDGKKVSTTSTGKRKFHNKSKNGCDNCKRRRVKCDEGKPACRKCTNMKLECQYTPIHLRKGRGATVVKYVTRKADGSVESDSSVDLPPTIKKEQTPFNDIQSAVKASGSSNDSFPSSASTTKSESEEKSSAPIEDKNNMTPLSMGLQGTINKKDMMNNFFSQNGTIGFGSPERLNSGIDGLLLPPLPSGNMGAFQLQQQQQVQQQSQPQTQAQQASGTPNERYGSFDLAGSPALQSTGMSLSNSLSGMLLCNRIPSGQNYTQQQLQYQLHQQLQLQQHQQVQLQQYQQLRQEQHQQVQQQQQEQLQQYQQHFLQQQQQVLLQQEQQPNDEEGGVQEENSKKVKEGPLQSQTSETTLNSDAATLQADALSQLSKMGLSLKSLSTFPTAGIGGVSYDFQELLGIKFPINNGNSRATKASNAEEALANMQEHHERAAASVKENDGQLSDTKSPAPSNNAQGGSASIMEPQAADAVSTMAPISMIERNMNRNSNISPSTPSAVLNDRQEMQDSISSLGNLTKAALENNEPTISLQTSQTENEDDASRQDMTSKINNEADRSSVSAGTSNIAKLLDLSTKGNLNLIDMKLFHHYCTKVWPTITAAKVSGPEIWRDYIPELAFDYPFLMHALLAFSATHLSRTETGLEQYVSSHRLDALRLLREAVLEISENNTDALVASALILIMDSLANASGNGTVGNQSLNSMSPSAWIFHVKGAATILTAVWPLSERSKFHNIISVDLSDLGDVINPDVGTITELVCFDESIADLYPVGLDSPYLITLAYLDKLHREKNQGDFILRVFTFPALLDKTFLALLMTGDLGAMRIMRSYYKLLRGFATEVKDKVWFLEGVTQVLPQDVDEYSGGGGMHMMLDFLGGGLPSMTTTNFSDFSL
# Assay: PBM E-score (8-mer binding enrichment) (E-score (-0.5 to 0.5)); higher = stronger / more preferred TF binding; most listed sequences are background and not binding sites
# Conditions: protein concentration: 200 nM; construct: GST-full length
# Procedure, shortened: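 Bound GST-tagged yeast transcription factors, applied at about 100-200 nM to double-stranded universal all-10-mer Agilent arrays, were detected with fluorescent anti-GST. Scans were normalised with masliner. A modified Wilcoxon-Mann-Whitney statistic, the E-score, was assigned to each ungapped eight-base word pooled with its reverse complement by the Universal PBM Analysis Suite.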
row,Sequence,PBM E-score
1,AACCTTCA,-0.114
2,ATAAATTC,0.0372
3,AACAAGGT,-0.18
4,AAGTCTAC,-0.144
5,CCGCACTC,0.195
6,CGCATATC,0.187
7,CAGGCTAC,-0.13
8,CTGGTCAC,-0.152
9,GCCCCAGA,-0.09
10,CCACACCC,-0.0354
11,CATGATCG,0.0308
12,TACTCCCA,-0.129
13,CAACTCCC,-0.102
14,CGCTTCGC,0.209
15,AAGTTCAC,0.0547
16,AGTTCACG,0.234
17,CCTGGCGC,-0.125
18,CCGACAAA,0.00616
19,CCGAGAAG,0.0731
20,CGCAAGTA,0.0533
21,AACCGAAC,0.227
22,CCGCTCGA,-0.067
23,CCTGTCTA,-0.188
24,CGGTGAGC,0.0652

row,Sequence,PBM E-score
1,ATAGTGTC,0.0368
2,ATTCACGG,-0.0319
3,AGCTAGTG,-0.0672
4,GTTAAGAA,0.106
5,CCTCGTGA,0.168
6,AATGGACA,-0.102
7,GCGGAGAA,-0.0486
8,TGTTATAA,0.103
9,AACCCAAT,-0.154
10,CAACCCAC,-0.115
11,CCCTGTAC,0.154
12,ATTTCTTG,-0.109
13,GTAAGCCA,-0.026
14,CATCATGC,-0.134
15,AAGCGGAA,0.0475
16,GACGCAAC,-0.0716
17,AAGTCCAT,-0.197
18,ACAAGGTC,-0.13
19,ATCCATCC,-0.00885
20,TCTGAAAA,-0.169
21,CATATAAA,0.0469
22,GAGCCACC,-0.176
23,ATGCAAAA,-0.00889
24,CATCACCG,0.0172

row,Sequence,PBM E-score
1,CGGATCTC,0.0169
2,CCTCGAAC,0.0791
3,CTCTCGGA,0.0379
4,GCACTTCA,-0.122
5,ATATTCTC,-0.0883
6,CATATGAC,0.0367
7,GAGTTACA,-0.0758
8,CATTATGC,0.0397
9,CCCATATA,-0.095
10,GGGACACA,-0.126
11,AGTGAAAC,-0.0497
12,CCCATCCG,0.192
13,CGAACCTC,0.119
14,ACTGGGCC,-0.245
15,AACGGTGC,0.237
16,CCCAAACC,0.0006
17,CAATAATA,-0.0436
18,AAGTGGAA,-0.0348
19,CAGCCTTA,-0.156
20,TCATTCAA,-0.0375
21,GGAGTGAA,0.00707
22,GTGTCGGA,0.0733
23,TAGAAGCA,-0.191
24,AGGTGTTG,-0.0609

row,Sequence,PBM E-score
1,ACCGCACC,0.0201
2,AACCATAA,-0.0292
3,AGCACCGC,0.0434
4,AGCTGAAG,-0.194
5,CCCGGCAC,-0.188
6,CCCAAGTA,-0.0707
7,CTAGCAGA,-0.156
8,AATCAAGG,-0.046
9,CTGAGGGA,-0.138
10,GCAGTTTA,0.0629
11,GTACGCAA,0.247
12,ATTTAAAA,-0.0332
13,GTCAAGAA,0.0576
14,ATTGTGAC,-0.129
15,GGGACCTA,0.00758
16,CGCACACG,0.121
17,AGAGTCTA,0.134
18,GTCTTCTA,-0.128
19,CGCTTTGC,-0.0514
20,AGGCGCAT,-0.00045
21,AGTCACGG,-0.137
22,CTAATTCC,-0.116
23,CACACGCC,-0.168
24,AGGAGGTG,-0.347

row,Sequence,PBM E-score
1,ACAAGCTG,-0.00021
2,CGAGATCC,0.164
3,CACCTAAA,0.0827
4,AAGCAGTA,-0.0632
5,CATGGTCA,0.0922
6,GCGTAGCC,0.0116
7,ATCGAGAA,0.0338
8,AGAAAGGG,-0.102
9,GGCTAATA,0.0467
10,CAAGCGCG,0.113
11,CTGGCAGC,-0.151
12,ACGCGTCC,-0.0191
13,AGCATTTA,-0.00316
14,AGACTTGC,-0.0795
15,CGGATCCC,-0.0506
16,ACAATGGC,0.0891
17,GTACTGAA,0.193
18,CTGGCCGA,-0.0256
19,CAATCATG,-0.0906
20,ACCATGCA,-0.084
21,GATTCGCA,0.131
22,CAATCATC,-0.0932
23,GCGAGACA,0.00192
24,AGTTCTGG,-0.111

row,Sequence,PBM E-score
1,ACCGCCAT,-0.125
2,AAGCCCAC,-0.0729
3,CTTCGCCA,-0.2
4,ACGTCCCG,0.0323
5,GATAGGCC,-0.146
6,GATTACCC,-0.141
7,CAAAATCG,0.0182
8,GACCCGAA,-0.0162
9,CCTAAGGC,-0.355
10,AGATATGC,-0.186
11,AAGCGTCC,-0.124
12,CAGCAGAG,-0.188
13,GCTGGCCC,-0.229
14,CTTTACAC,0.12
15,AAATCCTC,-0.209
16,ATAACTCC,-0.0656
17,TCGTTGAA,0.328
18,AAGGTACA,-0.0721
19,AAAAGTCA,-0.0856
20,CGCTAAAG,0.146
21,ACTTGTGC,-0.116
22,CAAAGAGA,-0.127
23,ATGGTCAA,0.0476
24,CGCAGACA,-0.0682

row,Sequence,PBM E-score
1,CATAGTGA,-0.0206
2,CATCCCAG,-0.0709
3,ATATTCCA,-0.00152
4,CATATACA,0.05
5,CTAGGTAC,0.0119
6,GGATGCCC,-0.0726
7,ACCGAGCT,0.186
8,GCGCTGAC,-0.4
9,CTGCACCC,0.0171
10,ATGACGGC,-0.143
11,CGAGGAAA,0.026
12,CTATTTTC,-0.111
13,ACTTAATC,0.0034
14,ACGATTGC,0.266
15,GTCACCTA,-0.156
16,GTCAGTCA,-0.217
17,CTGTATAC,0.281
18,GTACAGCA,0.299
19,ATACACAT,0.0375
20,ACAGATAC,0.174
21,AGGTTTTC,0.119
22,AGCCTAGG,-0.266
23,ACCTTAAA,0.0805
24,AATTCGGT,0.248

row,Sequence,PBM E-score
1,GGCATCAC,-0.238
2,GGTATCAC,-0.126
3,CATTATCG,0.194
4,ATCGGTCA,0.0141
5,GACGGTTA,-0.116
6,GAATAATA,0.151
7,ACAAGGAT,-0.148
8,CTACGTAC,0.305
9,ACGGAACC,0.24
10,CTGGTGAA,-0.22
11,CGTCCCCA,-0.0614
12,GGATTTGA,0.0631
13,CTCTGCAC,-0.0204
14,AAAGCACT,-0.0357
15,AATACGCC,0.00457
16,CCGCTATC,-0.0602
17,AAAGCGAC,0.145
18,ATAAAAAG,0.0686
19,GGGAATAA,0.0576
20,CCATCGCC,-0.267
21,CACGGTGC,-0.0595
22,ACGACCCG,0.285
23,ACGGGGGA,0.0614
24,CCTATACA,0.151
